Laboratory results taken from PMC3268818 (Journal of Molecular Biology, 2011).

Molecular target: the molecule itself
Experiment: SEC-MALS

B1: BclXL_dTM, human BclXL in which the TM domain is deleted ([…]) (domain or fragment)
chain: not shown
stoichiometry N: 2
